Source: the supplement of paper PMC9446081
In all, about 39,000 compounds went through this assay and about 220 (0.56%) showed activity. This is one part of the list.
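Note: static incubation at 37 °C against the wild-type strain, values averaged over two biological replicates.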

These compounds were tested on Escherichia coli K-12 BW25113 (assay: relative growth (OD600 normalised to plate interquartile mean) (fraction); higher = less growth inhibition, active = 0.2 or less). Conditions: 50 µM; LB; incubation time: overnight (16-24 h).
`C[C@@H]1CN([C@H](C)CO)C(=O)c2cc(NC(=O)Nc3ccc(F)cc3)ccc2O[C@H]1CN(C)Cc1ccc(-c2ccccc2)cc1` was tested, and the relative growth was inactive: 0.97.
With `C[C@@H]1CN([C@H](C)CO)C(=O)Cc2cc(NS(=O)(=O)c3ccc(F)cc3)ccc2O[C@@H]1CN(C)S(=O)(=O)c1cccs1` the relative growth was inactive: 0.981.
`COCCN1C[C@@H]2CN(C(=O)c3cnn(C)c3)C[C@H]2C1=O` was tested, and the relative growth was inactive: 0.908.
In the case of `CC(C)NC(=O)Nc1ccc2c(c1)C(=O)N([C@@H](C)CO)C[C@H](C)[C@H](CN(C)C(=O)Nc1ccccc1)OCCCC[C@H](C)O2`, the relative growth is reported as inactive: 0.992.
With `COCCN1[C@@H]2COC[C@H]1CN(S(=O)(=O)c1cn(C)cn1)C2` the relative growth was inactive: 0.98.
For `CC(C)c1c(O)ccc2c1CCC1C(C)(C)CCCC21C` (stereo not given), the relative growth was inactive: 0.993.
In the case of `C[C@@H]1CCCCO[C@@H](CN(C)S(=O)(=O)c2cccs2)[C@H](C)CN([C@H](C)CO)C(=O)c2cc(NC(=O)Cc3ccccc3)ccc2O1`, the relative growth is reported as inactive: 1.
In the case of `C[C@@H]1CN([C@H](C)CO)C(=O)c2cccc(NS(=O)(=O)c3ccccc3)c2O[C@H]1CN(C)Cc1ccc(Cl)c(Cl)c1`, the relative growth is reported as inactive: 1.01.
`CC(C)NC(=O)Nc1ccc2c(c1)C(=O)N([C@@H](C)CO)C[C@H](C)[C@H](CN(C)Cc1ccc(Cl)c(Cl)c1)OCCCC[C@@H](C)O2` was tested, and the relative growth was inactive: 1.
With `C[C@H]1CN([C@@H](C)CO)C(=O)Cc2cc(NC(=O)Nc3ccc4c(c3)OCO4)ccc2O[C@@H]1CN(C)Cc1ccc(Cl)c(Cl)c1` the relative growth was inactive: 1.01.
With `Cc1ccc(-c2ccc3c(c2)O[C@@H](CN(C)C(=O)CN(C)C)[C@@H](C)CN([C@@H](C)CO)S3(=O)=O)cc1` the relative growth was inactive: 0.951.
`OCc1ccccc1-c1ccccc1` was tested, and the relative growth was inactive: 0.962.
In the case of `CC(C)NC(=O)N(C)C[C@H]1Oc2ccc(NC(=O)CCN3CCOCC3)cc2C(=O)N([C@H](C)CO)C[C@@H]1C`, the relative growth is reported as inactive: 1.01.
`Cc1noc(C)c1S(=O)(=O)Nc1ccc2c(c1)C(=O)N([C@H](C)CO)C[C@@H](C)[C@@H](CN(C)Cc1ccc(C(F)(F)F)cc1)OCCCC[C@@H](C)O2` was tested, and the relative growth was inactive: 0.984.
With `Cc1noc(C)c1NC(=O)N(C)C[C@H]1Oc2ccc(NC(=O)C3CC3)cc2C(=O)N([C@@H](C)CO)C[C@H]1C` the relative growth was inactive: 0.987.
In the case of `C[C@H]1CN([C@@H](C)CO)C(=O)c2cc(NC(=O)CCN3CCOCC3)ccc2O[C@H]1CN(C)S(=O)(=O)c1ccc(Cl)cc1`, the relative growth is reported as inactive: 0.987.
With `CCOC(=O)COc1ccc(-c2nn[nH]n2)cc1` the relative growth was inactive: 0.983.
For `C[C@@H]1CN([C@@H](C)CO)C(=O)CCCn2cc(nn2)CO[C@H]1CN(C)S(C)(=O)=O`, the relative growth was inactive: 1.02.
In the case of `C[C@@H]1CCCCO[C@H](CN(C)Cc2ccc(Cl)c(Cl)c2)[C@@H](C)CN([C@H](C)CO)C(=O)c2cc(NC(=O)Nc3ccc4c(c3)OCO4)ccc2O1`, the relative growth is reported as inactive: 0.994.
`C[C@@H]1CN([C@@H](C)CO)C(=O)Cc2cc(NC(=O)Cn3cnnn3)ccc2O[C@@H]1CN(C)Cc1ccc(Cl)c(Cl)c1` was tested, and the relative growth was inactive: 0.983.
With `C[C@@](N)(C(=O)O)c1ccc(-c2nn[nH]n2)cc1` the relative growth was inactive: 0.988.
In the case of `Cc1nn(C[C@@H](O)Cn2cnc3c2c(=O)n(C)c(=O)n3C)c(C)c1Br`, the relative growth is reported as inactive: 1.01.
For `O=c1c(-c2ccccc2F)coc2cc(O[C@@H]3O[C@H](CO)[C@@H](O)[C@H](O)[C@@H]3O)ccc12`, the relative growth was inactive: 0.976.
`COc1ccc(S(=O)(=O)N(C)C[C@H]2Oc3ccc(NC(=O)Cc4ccccc4)cc3C(=O)N([C@@H](C)CO)C[C@H]2C)cc1` was tested, and the relative growth was inactive: 1.01.
For `C[C@@H]1CN([C@H](C)CO)C(=O)c2ccccc2-c2ccccc2CO[C@@H]1CN(C)S(=O)(=O)c1cn(C)cn1`, the relative growth was inactive: 0.997.
With `C[C@@H]1CN([C@@H](C)CO)C(=O)c2cc(Br)cnc2O[C@H]1CN(C)C(=O)c1ccc2c(c1)OCO2` the relative growth was inactive: 0.994.
For `Cc1noc(C)c1S(=O)(=O)Nc1ccc2c(c1)C(=O)N([C@@H](C)CO)C[C@H](C)[C@H](CN(C)S(=O)(=O)c1cn(C)cn1)O2`, the relative growth was inactive: 0.981.
In the case of `CC(C)N1C[C@H](C)[C@@H](CN(C)Cc2ccc(Oc3ccccc3)cc2)Oc2c(cccc2-c2nn[nH]n2)C1=O`, the relative growth is reported as inactive: 0.998.
In the case of `CCS(=O)(=O)N1CC[C@]2(CC1)CN([C@@H](CO)c1[nH]c3cc(ccc3c12)OC)C(=O)Nc1c(noc1C)C`, the relative growth is reported as inactive: 0.966.
With `Cc1cc(C(=O)Nc2cccc3c2O[C@H](CN(C)S(=O)(=O)c2c(C)noc2C)[C@H](C)CN([C@@H](C)CO)C3=O)n(C)n1` the relative growth was inactive: 1.01.
In the case of `CC(=O)NCCCC[C@@H]1NC(=O)[C@H]2C[C@@H](C(=O)NCCCCCCNC(=O)CS)[C@@H](c3ccc(O)cc3)N2C1=O`, the relative growth is reported as inactive: 1.03.
`Clc1ccc(Sc2ccc(-c3ccccn3)s2)cc1` was tested, and the relative growth was inactive: 0.991.
`COc1cccc(S(=O)(=O)N(C)C[C@H]2Oc3cc(C#CCC(C)C)ccc3S(=O)(=O)N([C@@H](C)CO)C[C@H]2C)c1` was tested, and the relative growth was inactive: 0.934.
`CC(C)N1CC2(CN(Cc3ccc(Cl)c(Cl)c3)C2)Oc2c(NC(=O)c3ccncc3)cccc2C1=O` was tested, and the relative growth was inactive: 0.972.
With `O=C(CN1CCOCC1)NCC[C@@H]1CC[C@H](NS(=O)(=O)c2ccc(F)cc2)[C@H](CO)O1` the relative growth was inactive: 0.973.
With `Cc1ccc(S(=O)(=O)Nc2ccc3c(c2)CC(=O)N([C@@H](C)CO)C[C@@H](C)[C@@H](CN(C)S(=O)(=O)c2cn(C)cn2)O3)cc1` the relative growth was inactive: 0.979.
In the case of `COC(=O)C(CC#Cc1ccc2c(c1)[C@]1(C(=O)N2)[C@H](c2ccc(O)cc2)N2[C@H](c3ccccc3)[C@H](c3ccccc3)OC(=O)[C@H]2[C@@H]1C(=O)NC[C@H](O)c1ccccc1)C(=O)OC`, the relative growth is reported as inactive: 1.01.
For `C[C@H]1CN([C@@H](C)CO)C(=O)c2cc(NC(=O)Nc3ccc(C(F)(F)F)cc3)ccc2O[C@@H]1CN(C)S(C)(=O)=O`, the relative growth was inactive: 0.989.
For `C[C@H](CO)N1C[C@H](C)[C@H](CN(C)S(=O)(=O)c2ccc(F)cc2)OCCCC[C@H](C)Oc2ccc(NS(=O)(=O)c3ccc(Cl)cc3)cc2C1=O`, the relative growth was inactive: 1.01.
In the case of `CC(C)CC#Cc1cnc2c(c1)C(=O)N([C@H](C)CO)C[C@@H](C)[C@@H](CN(C)S(=O)(=O)c1cn(C)cn1)O2`, the relative growth is reported as inactive: 0.998.
In the case of `C[C@@H]1CN([C@H](C)CO)C(=O)c2cccc(NS(=O)(=O)c3ccc(F)cc3)c2O[C@@H]1CN(C)S(C)(=O)=O`, the relative growth is reported as inactive: 1.
In the case of `O=C(C[C@H]1CC[C@@H]2[C@H](COC[C@H](O)CN2CC2CCOCC2)O1)N1CCOCC1`, the relative growth is reported as inactive: 0.989.
With `COC(=O)c1cn(CC(=O)N2CCOCC2)nn1` the relative growth was inactive: 1.
For `CC(C)(C)[S@](=O)N1Cc2cc(C(=O)N[C@@H]3CCN(Cc4ccccc4)C3)nc(-c3cccc(-c4ccncc4)c3)c2[C@@H]1CCO`, the relative growth was inactive: 0.996.
In the case of `O=C(C[C@@H]1CC[C@H](NC(=O)CN2CCOCC2)[C@H](CO)O1)NCCc1ccccc1`, the relative growth is reported as inactive: 1.
`[N-]=[N+]=Nc1ccccc1C[C@@]1(C(=O)N2CCCCC2)N=C(c2ccc(OCCCO)cc2)O[C@@H]1c1ccccc1` was tested, and the relative growth was inactive: 1.01.
`Cc1noc(C)c1NC(=O)N(C)C[C@@H]1Oc2ccc(NS(=O)(=O)c3cccs3)cc2CC(=O)N([C@@H](C)CO)C[C@H]1C` was tested, and the relative growth was inactive: 1.
For `COC(=O)[C@@H]1C[C@H](C#N)N[C@@H]1c1ccccn1`, the relative growth was inactive: 0.936.
With `C[C@@H]1CN([C@H](C)CO)C(=O)Cc2cc(NC(=O)Nc3ccc(F)cc3)ccc2O[C@@H]1CN(C)Cc1ccc(-c2ccccc2)cc1` the relative growth was inactive: 0.951.
For `C[C@@H]1CN([C@H](C)CO)C(=O)Cc2cc(NS(=O)(=O)c3ccc(Cl)cc3)ccc2O[C@@H]1CN(C)Cc1ccc(C(F)(F)F)cc1`, the relative growth was inactive: 1.04.
For `C[C@@H]1CN([C@H](C)CO)S(=O)(=O)c2ccc(Br)cc2O[C@H]1CN(C)S(=O)(=O)c1ccccc1`, the relative growth was inactive: 1.03.
`C[C@H]1CN([C@@H](C)CO)C(=O)c2cccc(NC(=O)Nc3cccc4ccccc34)c2O[C@H]1CN(C)CC1CC1` was tested, and the relative growth was inactive: 0.98.
For `C[C@H](CO)N1C[C@H](C)[C@H](CN(C)C(=O)NC2CCCC2)Oc2cc(-c3cncnc3)ccc2S1(=O)=O`, the relative growth was inactive: 0.987.
With `C[C@@H]1CCCCO[C@@H](CN(C)S(=O)(=O)c2ccc(F)cc2)[C@@H](C)CN([C@@H](C)CO)C(=O)c2cc(NC(=O)Nc3ccc(C(F)(F)F)cc3)ccc2O1` the relative growth was inactive: 1.
With `C=C(C1=CCN(S(=O)(=O)c2ccc(C)cc2)C1)[C@@H](OC(C)=O)[C@@H]1CCCN1S(=O)(=O)c1ccccc1[N+](=O)[O-]` the relative growth was inactive: 1.01.
With `C[C@@H]1CN([C@@H](C)CO)C(=O)c2cc(NC(=O)CCC(F)(F)F)ccc2O[C@@H](C)CCCCO[C@H]1CN(C)C(=O)Nc1ccc(C(F)(F)F)cc1` the relative growth was inactive: 1.02.
In the case of `O=C(C[C@H]1CC[C@@H]2[C@H](COC[C@H](O)CN2S(=O)(=O)c2ccc(F)cc2)O1)N[C@@H]1CCN(Cc2ccccc2)C1`, the relative growth is reported as inactive: 0.993.
For `C[C@H]1CN([C@@H](C)CO)C(=O)c2cc(NC(=O)CCC(F)(F)F)ccc2O[C@H]1CN(C)Cc1ccc(Cl)c(Cl)c1`, the relative growth was inactive: 1.02.
With `COc1ccc(CN(C)C[C@@H]2OCCCC[C@@H](C)Oc3ccc(NS(=O)(=O)c4ccc(F)cc4)cc3C(=O)N([C@@H](C)CO)C[C@H]2C)cc1` the relative growth was inactive: 0.995.
In the case of `C[C@H]1CN([C@@H](C)CO)C(=O)c2cc(Br)cnc2O[C@H]1CN(C)S(=O)(=O)c1ccccc1`, the relative growth is reported as inactive: 1.01.
